In patent US9540424B2, “Serum albumin binding molecules” (BRISTOL-MYERS SQUIBB COMPANY, priority 2010, dated 2017):

Test: Differential Scanning calorimetry (DSC) thermostability of midscaled SABAs
Format: physicochemical
Settings: 1 mg/ml solution, 5° C. to 95° C. at 1 degree per minute
Protocol: Differential Scanning calorimetry (DSC) analyses of the midscaled SABAs were performed to determine their respective Tm's. A 1 mg/ml solution was scanned in a N-DSC II calorimeter (calorimetry Sciences Corp) by ramping the temperature from 5° C. to 95° C. at a rate of 1 degree per minute under 3 atm pressure. The data was analyzed vs. a control run of the appropriate buffer using a best fit using Orgin Software (OrginLab Corp).

B1: SABA2.1: His-tagged SABA2 sequence (protein)
chain: MGVSDVPRDLEVVAATPTSLLISWPKYDKTGHYYRITYGETGGNSPVQEFTVPTRQTTATISGLKPGVDYTITVYAVSKDDYYPHEHRPISINYRTEIDKPSQHHHHHH
modifications: His6 tag
DSC (Tm) (first thermal transition (lower Tm)): 58.5 °C | DSC (Tm) (second thermal transition (higher Tm)): 78.2 °C

Some values that stand alone complete this part of the results.
